In all, about 410,000 compounds went through this assay and about 1,200 (0.29%) were called active. The shares of active, inactive and inconclusive entries below differ from those in the screen. Calls come from the whole dose curve; as a rule, active = well fitted activation curve with a large enough effect; inconclusive = small, poorly fitted or top-dose-only effect; inactive = flat fitted curve, though single readings scatter. A potency beside an inconclusive call is a rough fit, not a confirmed value.
Assay: qHTS of Nrf2 Activators; note: nearly all actives have a fitted effect of over 65% in size; for activation: % of control where 0% means no effect
Details: AREc32 ARE-luciferase reporter (MCF7-derived line), luminescence, 24 h; activation: at 46.1 µM (top of the series)
Method in brief: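 Steps: seed AREc32_Fluc cells (1000/well, 5% FBS OPTI-MEM); incubate overnight at 37 deg C; add 23 nL compound; incubate 24 hr; add Steady-Glo; hold 30 min RT; read luminescence.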
Potency is the fitted concentration of half-maximal effect; tags give direction and shape of the fitted curve.

| Structure (SMILES) | activation | Potency |
| --- | --- | --- |
| O=C(Nc1ccccc1C(F)(F)F)C1(S(=O)(=O)c2ccc(Cl)cc2)CC1 | inactive: 0.374% | – |
| COc1cccc(-c2cnc(C(O)c3cccc(C)c3C)[nH]2)c1 (stereo not given) | inactive: 0.874% | – |
| Cc1cc(C)nc(SC2=CS(=O)(=O)c3ccccc32)n1 | – | inconclusive: 3.16 µM [activator, partial curve, poor fit] |
| CSC1(SC2=NCCN2)SC2(NCCN2)S1 | inactive: 23.9% | – |
| COc1ccccc1NC(=O)c1sc2nc(-c3ccco3)ccc2c1N | – | inconclusive: 3.55 µM [activator, partial curve, poor fit] |
| O=C(CNc1cccc2ccccc12)N/N=C/C(Br)=C/c1ccccc1 | – | inconclusive: 35.5 µM [activator, single point] |
| Cn1c(=O)c(=O)n(C)c2cc(S(=O)(=O)N3CCCC3C(=O)Nc3cccc(F)c3)ccc21 (stereo not given) | inactive: -1.36% | – |
| Cc1ccc(S(=O)(=O)CCC(=O)Nc2nc(-c3ccncc3)cs2)cc1 | – | inconclusive: 15.8 µM [activator, single point] |
| CC(=O)Nc1ccc(Sc2ccc([N+](=O)[O-])o2)cc1 | – | inconclusive: 4.47 µM [activator, single point] |
| Clc1ccc2nc(-c3ccc(Br)s3)cn2c1 | – | inconclusive: 3.16 µM [activator, partial curve, poor fit] |
| O=C(Cn1c(=O)n(Cc2ccc3c(c2)OCO3)c(=O)c2ccccc21)Nc1cccc(Cl)c1 | inactive: 0.34% | – |
| O=C(CCl)Nc1cccn2ncnc12 | – | inconclusive: 22.4 µM [activator, single point] |
| Cc1cc(-c2ccco2)c(C#N)c2nc3ccccc3n12 | – | inconclusive: 10 µM [activator, partial curve, poor fit] |
| CC1(C)Cc2cccc(OCC(=O)OCC(=O)Nc3ccccc3)c2O1 | inactive: 1.02% | – |
| COc1cccc2c1C(=O)c1c(O)c3c(c(O)c1C2=O)CC(O)(C(=O)CO)CC3OC1CC(N(C)C)C(O)C(C)O1 (stereo not given) | inactive: -1.66% | – |
| CC(Oc1ccc(Br)cc1)c1nc2c3ccccc3nc(=S)n2[nH]1 (stereo not given) | – | inconclusive: 28.2 µM [activator, single point] |
| Cc1cc(-c2csc(NC(=O)c3ccc(S(=O)(=O)N(C)C)cc3)n2)c(C)n1-c1ccccc1 | inactive: -0.022% | – |
| O=c1c(Cl)cc(Cl)nn1-c1ccccc1 | inactive: 21.7% | – |
| Cc1ccc(S(=O)(=O)N2CCN(C(=O)COC(=O)/C=C/c3ccccc3[N+](=O)[O-])CC2)c(C)c1 | – | inconclusive: 20 µM [activator, single point] |
| COc1ccc(OC)c(C=C2CCc3ccccc3C2=O)c1 | – | inconclusive: 6.31 µM [activator, partial curve, poor fit] |
| CCOC(=O)c1[nH]c2c(c1-c1ccccc1)C(=O)CC(c1ccc(OCC)cc1)C2 (stereo not given) | inactive: 2.12% | – |
| COc1cccc(CN(C)C(=O)CCC(=O)c2cc(Br)ccc2OC)c1 | – | inconclusive: 11.2 µM [activator, partial curve] |
| O=c1oc2ccc(Br)cc2cc1S(=O)(=O)c1ccc(F)cc1 | – | inconclusive: 15.8 µM [activator, single point] |
| COc1ccc(S(=O)(=O)N2CCN(C(=O)c3ccc([N+](=O)[O-])o3)CC2)cc1 | – | inconclusive: 2.82 µM [activator, full curve, poor fit] |

| Structure (SMILES) | activation | Potency |
| --- | --- | --- |
| O=C(N/N=C/c1cccc([N+](=O)[O-])c1)c1c[nH]c2ccccc12 | – | inconclusive: 4.47 µM [activator, partial curve, poor fit] |
| CC1CCCCN1Cc1c(O)ccc2c(=O)c(-c3cccc(Cl)c3)c(C(F)(F)F)oc12 (stereo not given) | inactive: 2.18% | – |
| COC(=O)CN1C(=O)C2(C(C#N)=C(N)Oc3c2c(C)nn3-c2ccccc2)c2ccccc21 (stereo not given) | – | inconclusive: 35.5 µM [activator, partial curve, poor fit] |
| Cc1ccc(N/N=C/c2c(O)cc(C)oc2=O)cc1 | – | inconclusive: 31.6 µM [activator, single point] |
| CN(C)S(=O)(=O)c1cccc(NC(=O)COC(=O)/C=C/c2cccs2)c1 | – | inconclusive: 12.6 µM [activator, partial curve, poor fit] |
| CN1CCN(C(=O)CCN2C(=O)/C(=C/c3ccc(F)cc3)SC2=S)CC1 | – | inconclusive: 6.31 µM [activator, partial curve, poor fit] |
| Cn1c(N)c(C(C[N+](=O)[O-])c2c(F)cccc2Cl)c(=O)n(C)c1=O (stereo not given) | – | active: 15.8 µM |
| CN(C(=O)c1cc(-c2ccccc2)on1)C1CCCCC1 | inactive: -0.529% | – |
| CCOC(=O)N1CCN(S(=O)(=O)c2ccc(C(=O)Nc3sc4c(c3C(N)=O)CCN(CC)C4)cc2)CC1 | – | inconclusive: 31.6 µM [activator, single point] |
| CC1CCCC(NC(=O)NC(=O)CCl)C1C (stereo not given) | – | inconclusive: 25.1 µM [activator, partial curve, poor fit] |
| COC(=O)c1ccc(COc2ccccc2/C=C/C(=O)c2ccc(OCC(=O)O)cc2)cc1 | – | active: 17.8 µM |
| O=C(COC(=O)/C=C/c1ccccc1[N+](=O)[O-])Nc1ccc(OC(F)F)cc1 | inactive: 1.29% | – |
| COC(=O)c1ccccc1Sc1ncnc2onc(C)c12 | – | inconclusive: 22.4 µM [activator, single point] |
| Cc1ccc(NC(=O)/C=C/c2ccc([N+](=O)[O-])s2)cc1 | – | inconclusive: 0.562 µM [activator, full curve, poor fit] |
| O=C(Nc1ccccc1)Nc1ccccn1 | – | inconclusive: 14.1 µM [activator, single point] |
| O=C(CCSc1ccc(Br)cc1)c1ccc(O)cc1 | – | active: 15.8 µM |
| CCCc1cc(N2CCN(c3cc(Cl)ccc3C)CC2)n2cnnc2n1 | inactive: 2.71% | – |
| Cc1ccc(-n2nc3c(N4CCC(C(=O)N5CCCCC5)CC4)nnc(C)c3c2C)cc1 | inactive: 5.87% | – |
| O=c1cc(-c2ccccc2)oc2ccc3ccccc3c12 | – | inconclusive: 0.631 µM [activator, full curve, poor fit] |
| Cc1ccc(S(=O)(=O)N(C)C)cc1NC(=O)c1cc(=O)c2ccccc2o1 | – | inconclusive: 14.1 µM [activator, single point] |
| Cc1cccn2c(=O)c(/C=C(\C#N)C(N)=O)c(Oc3ccccc3)nc12 | – | inconclusive: 31.6 µM [activator, single point] |
| O=C(/C=C/Nc1ccc(Oc2ccccc2)cc1)c1ccco1 | – | inconclusive: 10 µM [activator, partial curve] |
| C=CCOC(=O)C1=C(C)OC(N)=C(C#N)C1c1c(C)nn(-c2ccccc2)c1Cl (stereo not given) | – | inconclusive: 35.5 µM [activator, single point] |
| O=C(/C=C/c1ccccc1Cl)OCC(=O)N1CCCC1 | – | inconclusive: 11.2 µM [activator, partial curve, poor fit] |

| Structure (SMILES) | activation | Potency |
| --- | --- | --- |
| Oc1ccc(/C=N\Nc2nncc(-c3ccccc3)n2)cc1 | – | active: 7.08 µM |
| COc1cc(/C=C/C(=O)c2ccc(NS(=O)(=O)c3ccc(C)cc3)cc2)cc(OC)c1O | – | inconclusive: 28.2 µM [activator, single point] |
| CCc1nc2sc3ccccc3c(=O)c2c(=O)n1Cc1ccco1 | – | inconclusive: 20 µM [activator, partial curve, poor fit] |
| O=C(CSc1nnc(-c2ccccc2Cl)o1)Nc1ccccn1 | inactive: 3.16% | – |
| CCCS(=O)(=O)c1ncc(Cl)c(C(=O)N(Cc2ccccc2)Cc2ccco2)n1 | – | inconclusive: 3.16 µM [activator, single point] |
| c1ccc(Sc2ncnc3ccccc23)cc1 | – | inconclusive: 22.4 µM [activator, single point] |
| CC(=O)Nc1ccc(NC(=O)CSc2nnc(CC(C)O)n2-c2ccccc2)cc1 (stereo not given) | inactive: -1.09% | – |
| O=S(=O)(Nc1ccc(-c2csc(-c3ccccc3)n2)cc1)c1ccccc1 | inactive: 3.28% | – |
| CC1(C)Nc2ccc(O)cc2-c2c1ssc2=S | – | inconclusive: 22.4 µM [activator, single point] |
| CCN(CC)S(=O)(=O)c1ccc(NC(=O)c2ccc(CN3CCOCC3)cc2)cc1 | inactive: 0.0641% | – |
| Cc1ccccc1C1=Nn2c(nnc2-c2ccco2)SC1 | – | inconclusive: 11.2 µM [activator, partial curve, poor fit] |
| NC(=O)/C=C/C(=O)Nc1ccc(Cl)cc1 | – | inconclusive: 28.2 µM [activator, single point] |
| CCN1c2ccccc2-c2nc3ccccc3n2C1c1cccnc1 (stereo not given) | inactive: 3.21% | – |
| Cn1c(=O)c2c(nc(SCC(=O)Nc3ccc(OC(F)(F)F)cc3)n2Cc2cccc(C(F)(F)F)c2)n(C)c1=O | inactive: -0.302% | – |
| CCCN(CCC)CCCNC(=O)C1CCC(CNS(=O)(=O)c2ccc(NC(C)=O)cc2)CC1 (stereo not given) | inactive: 0.414% | – |
| CCOc1ccc(-c2cc(C(=O)NCCCn3ccnc3)c3cc(Br)ccc3n2)cc1 | – | inconclusive: 35.5 µM [activator, single point] |
| O=C(CCN1CCC(c2ccccc2)C1)c1ccc2c(c1)OCCO2 (stereo not given) | – | active: 8.91 µM |
| CCOc1c(Br)cc(C(N)=O)cc1OCc1ccccc1 | – | inconclusive: 2.51 µM [activator, full curve, poor fit] |
| N#C/C=C1\Sc2ccccc2C(=O)N1CC(=O)N1CCN(S(=O)(=O)c2ccccc2)CC1 | – | inconclusive: 15.8 µM [activator, single point] |
| CCOc1ncccc1C(=O)NNC(=O)c1ccc(NS(=O)(=O)c2cccs2)cc1 | – | active: 2.51 µM |
| Fc1cccc(-c2nc(-c3ccncc3)no2)c1 | – | inconclusive: 5.01 µM [activator, full curve] |
| COc1cc(-c2nc(-c3cccc(C)c3)no2)cc(OC)c1OC | – | inconclusive: 8.91 µM [activator, partial curve] |
